Reference: PubChem BioAssay AID686979 (National Center for Advancing Translational Sciences (NCATS), 2013)
Among all 420,000 compounds or so, about 50,000 (12%) were called active. The shares of active, inactive and inconclusive entries below differ from those in the screen. Calls follow the shape of the dose curve; as a rule, active = well fitted inhibition curve with a large enough effect; inconclusive = small, poorly fitted or top-dose-only effect; inactive = flat fitted curve, though single readings scatter. Potencies of inconclusive entries are left out as doubtful fits.

assay: qHTS for Inhibitors of human tyrosyl-DNA phosphodiesterase 1 (TDP1): qHTS in cells in presence of CPT; conditions: chicken DT40 Tdp1-/-;hTDP1 cells + 20 nM CPT, ATP luminescence, 48 h; activity change, negative = growth inhibition: at 46.2 µM (top of the series) unless noted; also: nearly all actives have a fitted effect of over 55% in size
In short: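 Chicken DT40 Tdp1-/- cells complemented with human TDP1, 400 cells/well, exposed to compounds plus 20 nM camptothecin for at least 48 h at 37 C; viability read as ATP content by CellTiter-Glo luminescence.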
% is scaled to controls: 0 for no effect and ±100 for the full control effect; potency is read from the fitted curve at half-maximal effect; tags tell the direction and shape of the fitted curve.

SMILES | activity change, negative = growth inhibition | Potency
CCC1CCCCN1C(=O)CCNC(=O)Cn1cnc2ccccc2c1=O (stereo not given) | inactive: 0.417% | 
NC(=O)c1ccc(NCC2COc3ccccc3O2)c([N+](=O)[O-])c1 (stereo not given) | inactive: -24.5% | 
CC(C)c1nc(N2CCOCC2)c(C#N)c2c1CCCC2 | inactive: -13% | 
CC(C)(C)N1C(=O)c2ccccc2NC(=O)C1C(=O)NCCc1ccccc1F (stereo not given) |  | inconclusive [inhibitor, single point]
N/C(=N\c1nc2c(c(=O)[nH]1)CCCC2)Nc1ccccc1Sc1ccccc1 |  | active: 11.2 µM
CCc1ccc(-c2ccc(SCC(=O)NCC3CCCO3)nn2)cc1 (stereo not given) | inactive: 19.6% | 
CS(=O)(=O)N1CCCC(C(=O)Nc2ccc3c(c2)OCCO3)C1 (stereo not given) | inactive: 25.1% | 
O=C(Nc1ccc([N+](=O)[O-])cn1)c1cc(-c2cccc(Cl)c2)nc2ccccc12 |  | inconclusive [inhibitor, single point]
COC(=O)c1ccccc1NC(=O)Cc1noc2ccc(C)cc12 |  | inconclusive [inhibitor, single point]
OC1CCCN(Cc2cn(Cc3ccccc3)nc2-c2cc3ccccc3o2)C1 (stereo not given) |  | inconclusive [inhibitor, single point]
CCOCCCn1c(C)nc2c[n+](CC(=O)c3ccc4ccccc4c3)cc(Br)c21 |  | active: 2.31 µM
Nc1c(-c2ccc(Cl)cc2)cnn1-c1cccc(C(F)(F)F)c1 |  | inconclusive [inhibitor, partial curve]
Cc1cccn2c(=O)cc(COc3cccc(NC(=O)c4ccccc4F)c3)nc12 |  | inconclusive [inhibitor, single point]
COc1ccc(NC(=O)Cn2c(=O)n(Cc3nc(-c4ccccc4)no3)c(=O)c3cc4c(cc32)OCO4)cc1Cl | inactive: -15% | 
Cc1nc(Nc2ccccc2)sc1C(=O)Nc1ccccc1 |  | active: 20.6 µM
CCC(=O)c1ccc(OCC(=O)OCC(=O)NCCCc2ccccc2)cc1 | inactive: 5.92% | 
CCCCNC(=O)[C@@H]1CC=C[C@@H]2CCN(C3CCCCC3)C(=O)[C@@H]21 |  | inconclusive [inhibitor, single point]
Cc1cc(C(=O)COC(=O)COc2ccc(C#N)cc2)c(C)n1C1CC1 | inactive: 5.36% | 
COc1ccc(C(C)NC(=O)C2CCN(CCOc3ccc(Cl)cc3Cl)CC2)cc1OC (stereo not given) |  | active: 23.1 µM
Cc1ccc2[nH]c(C(=O)N/N=C/c3ccc([N+](=O)[O-])cc3)c(C)c2c1 |  | active: 3.66 µM
O=C(Nc1ccc(Cl)c(Cl)c1)N1CCC(c2ccccc2)C1 (stereo not given) |  | inconclusive [inhibitor, single point]
O=C(COc1ccc(C(=S)N2CCCC2)cc1)Nc1ccc(F)cc1 |  | inconclusive [inhibitor, single point]
CN1CC(=O)NC1=NC(=O)C12CC3CC(CC(C3)C1)C2 |  | inconclusive [inhibitor, single point]
CCC(C)Nc1nc2c(c(=O)n(C)c(=O)n2C)n1Cc1cccc(C)c1 (stereo not given) | inactive: 1.35% | 
COc1ccc2cc(CCNC(=O)c3cc4ccccc4o3)c(=O)[nH]c2c1 |  | active: 20.6 µM

SMILES | activity change, negative = growth inhibition | Potency
CCc1ccc(NC(=O)CC2C(=O)N(c3ccccc3)C(=O)N2C(C)C)cc1 (stereo not given) | inactive: -9.03% | 
Cc1cccc(NC(=S)NC(=O)/C=C/c2ccco2)c1 |  | active: 3.26 µM
COc1cccc(CNCc2ccccc2Br)c1OC |  | inconclusive [inhibitor, single point]
CCn1cc(C(=O)NCCCN2CCCCCC2)c(=O)c2cc(S(=O)(=O)N3CCc4ccccc4C3)ccc21 |  | inconclusive [inhibitor, single point]
CN1CCCC(OC(=O)c2ccccc2F)C1 (stereo not given) | inactive: -2.7% | 
CC(C)(C)c1ccc(OCC(=O)Nc2ccncc2)c(Br)c1 |  | active: 8.2 µM
CC1CCC(NC(=O)c2cc(C3CC3)nn2-c2ccccc2)CC1 (stereo not given) |  | inconclusive [inhibitor, single point]
CCOC(=O)NC(=O)CSc1nc(-c2ccc(C)c(C)c2)cn1-c1ccccc1 |  | inconclusive [inhibitor, single point]
COc1ccc(S(=O)(=O)NCC(=O)N(CC(=O)NCc2ccco2)Cc2ccccc2)cc1 | inactive: 1.92% | 
CCOc1ccccc1NC(=O)COc1coc(CN2CCc3ccccc32)cc1=O |  | inconclusive [inhibitor, single point]
FC(F)(F)c1cc(CCN2CCNC[C@@H]2c2ccccc2)cc(C(F)(F)F)c1 |  | active: 16.4 µM
O=C(Oc1ccc(Cl)cc1)c1ccc2nccnc2c1 | inactive: 4.32% | 
Cc1ncc(NS(=O)(=O)c2ccc(N)cc2)nc1C | inactive: 0.151% | 
CCN1CCN(c2cc(C)c3cc(NC(=S)N4CC(C)CC(C)C4)ccc3n2)CC1 (stereo not given) |  | inconclusive [inhibitor, single point]
COc1nnc(-c2ccc(N3CCOCC3)c(NC(=O)c3ccco3)c2)c2ccccc12 |  | inconclusive [inhibitor, single point]
ON(Cc1c(F)cccc1Cl)Cc1c(F)cccc1Cl | inactive: 3.42% | 
COc1cccc(NC(=O)CN(C)C(=O)CSC(=S)N2CCCC2)c1 | inactive: 2.73% | 
CCn1ccnc1CN1CCc2c([nH]c3ccccc23)C1C(C)(C)C (stereo not given) |  | inconclusive [inhibitor, single point]
O=C(Nc1ccc(N2CCOCC2)cc1)c1cc2c(s1)CCCC2 |  | inconclusive [inhibitor, single point]
COc1ccc(NC(=S)N(CCCN2CCCC(C)C2)Cc2cccs2)cc1 (stereo not given) |  | inconclusive [inhibitor, single point]
Cc1cccc(NC(=O)Cn2cc(C(=O)c3ccco3)c3ccccc32)c1C |  | inconclusive [inhibitor, single point]
O=C(Nc1nc2cc3c(cc2s1)OCCO3)c1cccc(N2C(=O)CCC2=O)c1 | inactive: -3.05% | 
Cc1nn(CC(=O)NCc2ccc(OC(C)C)cc2)c(=O)c2c(C)n(-c3ccc(Cl)cc3)nc12 |  | inconclusive [inhibitor, single point]
CCCCC1=CC2=CC(=O)C(C)(OC(=O)CCc3ccccc3)C(=O)C2=CO1 (stereo not given) |  | inconclusive [inhibitor, single point]
COc1ccc(CN2C(=O)C(NC(=O)c3ccccc3C)(C(F)(F)F)N=C2c2ccccc2)cc1 (stereo not given) |  | active: 20.6 µM

SMILES | activity change, negative = growth inhibition | Potency
COC(=O)N1CCC2(CCN(Cc3ccccc3)CC2)CC1 | inactive: 0.277% | 
COc1ccc(C2=NN3C(C2)c2ccccc2OC32C(=O)N(C)c3ccccc32)cc1 (stereo not given) |  | inconclusive [inhibitor, single point]
CSc1ccc(CCNC(=O)Cn2ncc3c(=O)oc4ccc(C)cc4c32)cc1 | inactive: 7.82% | 
O=C(CSc1nnc(COc2cccc3ccccc23)o1)N1c2ccccc2CCc2ccccc21 |  | inconclusive [inhibitor, single point]
CC(C)(C)c1ccc(C(=O)OCC(=O)NCc2ccco2)cc1 |  | inconclusive [inhibitor, single point]
Cc1noc(C)c1C(=O)NCCc1c(C)[nH]c2ccccc12 | inactive: 9.6% | 
CSc1nnc(-c2cccc(NC(=O)c3ccccc3)c2)n1C | inactive: -3.94% | 
Oc1ccccc1/C=N/n1c(COc2ccccc2)n[nH]c1=S | inactive: -2.94% | 
Cc1ccc(OCC(=O)Nc2cccc(-c3nnc(-c4ccccc4)o3)c2)cc1 |  | active: 16.4 µM
Cc1cc(N2CCN(C)CC2)nc2ccc(NC(=S)N3CCN(c4ccc(Cl)cc4)CC3)cc12 |  | active: 9.2 µM
O=c1cc(CSc2ccccc2)[nH]c(=S)[nH]1 | inactive: -2.46% | 
O=C(Nc1ccc2c(c1)OCCO2)C(c1ccnc2ccccc12)N1CCN(C/C=C/c2ccccc2)CC1 (stereo not given) |  | inconclusive [inhibitor, single point]
C=CCN(c1ccc(C(=O)Nc2ccc3c(c2)n(C)c(=O)n3C)cc1)S(C)(=O)=O |  | inconclusive [inhibitor, single point]
Cc1ccc(NC(=O)CC2C(=O)NC3CCCCC3N2C(=O)c2ccc(F)cc2)cc1C (stereo not given) |  | inconclusive [inhibitor, single point]
CCOc1ccc(NS(=O)(=O)c2c(C(=O)N3CCCCCC3)c(C)n(C)c2C)cc1 |  | inconclusive [inhibitor, single point]
COc1ccc(C(=O)Nc2cccc(C(=O)N3CCCC3)c2)cc1 |  | inconclusive [inhibitor, partial curve, poor fit]
COc1ccc(S(=O)(=O)c2c(SC)nn(Cc3ccccc3C)c2NC(C)=O)cc1 |  | inconclusive [inhibitor, single point]
O=c1ccn(-c2ccccc2)[nH]1 | inactive: 14% | 
Cn1nc(C(=O)N2CCN(c3ccccc3)CC2)c2c1-c1ccccc1S(=O)(=O)C2 |  | inconclusive [inhibitor, single point]
C=CC(=O)N1C/C=C\C(c2ccc(OC)cc2)N(Cc2ccc(F)cc2)C(=O)C1 (stereo not given) |  | inconclusive [inhibitor, single point]
CCOC(=O)N1CCN(C(=O)c2ccc(Cn3c(=S)[nH]c4cc5c(cc4c3=O)OCO5)cc2)CC1 |  | active: 23.1 µM
C=CCNC(=O)CSc1nnc(-c2cccc(S(=O)(=O)N3CCOCC3)c2)o1 | inactive: 5.91% | 
CN(C)S(=O)(=O)c1cccc(NC(=O)c2ccc(Sc3nncn3C)c([N+](=O)[O-])c2)c1 |  | inconclusive [inhibitor, single point]
Cc1csc(=O)n1CC(=O)OCC(=O)c1ccc(Br)cc1 | inactive: -2.11% | 
COc1ccc(C)cc1NC(=O)c1ccc2c(Cl)c3c(nc2c1)CCC3 | inactive: -0.655% | 
